# Out of some 310,000 compounds screened, about 2,200 (0.71%) showed an effect of 50% or more. Effects have a minus sign here. The list shows a part of the results.
# Biological target: human ether-à-go-go-related gene (hERG) potassium channel (human, UniProt Q12809)
# Assay: primary screen, population patch clamp on CHO cells stably expressing hERG
# Chain of human ether-à-go-go-related gene (hERG) potassium channel (Q12809 whole entry, looked up): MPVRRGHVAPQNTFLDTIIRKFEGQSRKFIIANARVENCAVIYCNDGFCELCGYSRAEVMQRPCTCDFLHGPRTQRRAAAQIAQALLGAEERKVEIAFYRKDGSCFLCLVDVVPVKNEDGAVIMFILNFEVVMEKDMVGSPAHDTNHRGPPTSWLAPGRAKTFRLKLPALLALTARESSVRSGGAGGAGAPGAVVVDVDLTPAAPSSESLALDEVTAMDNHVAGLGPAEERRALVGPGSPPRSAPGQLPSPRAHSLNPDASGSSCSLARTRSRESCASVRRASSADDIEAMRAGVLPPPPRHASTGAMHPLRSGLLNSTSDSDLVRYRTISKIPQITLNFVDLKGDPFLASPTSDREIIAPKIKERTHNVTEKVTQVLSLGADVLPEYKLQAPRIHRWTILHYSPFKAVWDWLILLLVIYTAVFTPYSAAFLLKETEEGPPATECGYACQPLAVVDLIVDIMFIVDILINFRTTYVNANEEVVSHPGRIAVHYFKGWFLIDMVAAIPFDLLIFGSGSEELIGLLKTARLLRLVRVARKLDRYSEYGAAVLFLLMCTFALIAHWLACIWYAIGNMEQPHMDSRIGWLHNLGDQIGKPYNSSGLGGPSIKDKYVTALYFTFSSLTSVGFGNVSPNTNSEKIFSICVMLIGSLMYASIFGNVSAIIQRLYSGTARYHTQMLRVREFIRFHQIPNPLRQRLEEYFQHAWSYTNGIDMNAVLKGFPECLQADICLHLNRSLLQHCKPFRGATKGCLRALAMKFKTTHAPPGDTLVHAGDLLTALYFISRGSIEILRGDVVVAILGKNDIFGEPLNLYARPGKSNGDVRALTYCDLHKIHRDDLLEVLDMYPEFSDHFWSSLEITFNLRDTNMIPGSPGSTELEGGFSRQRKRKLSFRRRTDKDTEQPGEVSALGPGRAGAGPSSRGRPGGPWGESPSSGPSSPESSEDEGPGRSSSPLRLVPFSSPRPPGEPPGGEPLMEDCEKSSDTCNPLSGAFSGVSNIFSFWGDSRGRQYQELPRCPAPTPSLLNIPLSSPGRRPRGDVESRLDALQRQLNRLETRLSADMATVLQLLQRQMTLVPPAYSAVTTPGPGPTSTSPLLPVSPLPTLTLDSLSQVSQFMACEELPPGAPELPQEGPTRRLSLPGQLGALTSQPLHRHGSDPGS
row,Compound,"hERG current change (%, negative = inhibition) at 1uM [%]"
1,Cc1nc2cc(NC(=O)CS(=O)(=O)c3ccccc3)ccc2s1,1.45
2,CCCCN(C)C(=O)C(Cc1ccccc1)NS(=O)(=O)c1ccc2c(c1)c(=O)n(C)c(=O)n2C (stereo not drawn),-0.619
3,CCN(CC)C(=O)c1[nH]cnc1C(=O)N[C@@H](Cc1ccccc1)C(=O)OCc1ccccc1,13
4,CCNc1nc(NC(C)CC)nc(Oc2ccc(=O)[nH]n2)n1 (stereo not drawn),3.97
5,COc1ccccc1CCNC1CCC(C(C)(C)C)CC1 (stereo not drawn),-4
6,Cc1cc(C)c2cc(CNC3CCCC3)c(Cl)nc2c1,7
7,CC1(C)CC(O)CC(C)(C)N1CC(O)COCCOc1ccc(Br)cc1 (stereo not drawn),-3.04
8,COc1ccc(C2=NO[C@@H]3C(=O)N(Cc4ccccc4)C(=O)[C@H]23)cc1OC,3.91
9,C/C(=N\Nc1ccc(F)cc1F)c1cccs1,15.3
10,[O-][n+]1c2ccccc2c2n1CCCN=C2c1ccc(Cl)cc1,-5.62
11,Cc1ccc(S(=O)(=O)N2CCN(C(=O)C(C)Cn3nc(C)c(C)c3C)CC2)cc1 (stereo not drawn),5.67
12,CC(C)(C)N(Cc1cc2ccccc2[nH]c1=O)C(=O)c1ccco1,10.4
13,Cl.O=C(O)Cc1cnc[nH]1,44.5
14,CN1CCN(CCC(=O)Nc2ccc(C3CCCC3)cc2)CC1.Cl,-12.4
15,O=C(COc1ccccc1)N=C1SC2CS(=O)(=O)CC2N1c1cccc(F)c1 (stereo not drawn),13.9
16,Cc1ccc(S(=O)(=O)Cc2ccc(C(=O)N3CCN(c4ccccn4)CC3)o2)cc1,11.6
17,COC(=O)C1=CN(Cc2ccccc2)C=C(C(=O)OC)C1c1ccc(O)c(OC)c1,17.4
18,COC(=O)c1cc(S(=O)(=O)N(C)C2CCCCC2)cn1C,10.5
19,O=C(CC(C(=O)O)C1CCCO1)Nc1cccc(C(F)(F)F)c1 (stereo not drawn),13.3
20,CCn1c(SCC(=O)NC2=NCCS2)nnc1C(C)NC(=O)c1ccccc1Br (stereo not drawn),13.2
21,COc1ccc(C(=O)NCC2CCCO2)cc1S(=O)(=O)N1CCCc2ccccc21 (stereo not drawn),5.55
22,CCOCCCNC(=S)Nc1ccc2nc(N3CCCC3)cc(C)c2c1,-74.8
23,O=C(CSc1nc2scc(-c3ccco3)c2c(=O)n1-c1ccccc1)NCC1CCCO1 (stereo not drawn),-4.9
24,Cc1ccc(C)c(OC(=O)C2CSC3(C)CCC(=O)N23)c1C (stereo not drawn),-0.975
25,COc1cc(NC(=O)CCc2nnc3ccc(N4CCOCC4)nn23)cc(OC)c1OC,12.2
26,O=C(/C=C/c1cccc([N+](=O)[O-])c1)NC(=S)Nc1cccc(NC(=O)c2ccccc2Cl)c1,6.61
27,CC(Nc1nc(-c2ccc3c(c2)NC(=O)CO3)cs1)c1ccccc1 (stereo not drawn),10.8

row,Compound,"hERG current change (%, negative = inhibition) at 1uM [%]"
1,COCCc1nc2ccc(C(=O)N3CCCCC3COC)cc2o1 (stereo not drawn),-26.2
2,COc1ccc(N2CCN(C(=O)c3ccccc3)CC2)c([N+](=O)[O-])c1,-33.8
3,O=C(COc1ccc2ccc(=O)oc2c1)Nc1cccc(S(=O)(=O)N2CCCCC2)c1,1.49
4,Br.CN1CCN(CC(=O)c2cc(C(C)(C)C)c(O)c(C(C)(C)C)c2)CC1,7.37
5,COc1c(C)cc(C(=O)C2CCCN(Cc3cccc(C)n3)C2)cc1C (stereo not drawn),-11
6,Cn1nnnc1Sc1ncnc2scc(-c3ccc[nH]3)c12,13
7,Cc1cc(C)c(S(=O)(=O)N2CCN(C(=O)C3COc4ccccc4O3)CC2)c(C)c1 (stereo not drawn),-0.477
8,O=C(CCn1cccc1)Nc1cc(F)ccc1F,16.9
9,CCOc1ccc(C2C(C(N)=O)=C(C)Nc3ncnn32)cc1OC (stereo not drawn),3.08
10,Cc1ccccc1OCC(=O)NCCNC(=O)c1ccccn1,14
11,O=C1C=C(c2ccc(C(=O)O)cc2)C[C@@H](c2ccc3c(c2)OCO3)C1,10.1
12,O=C(N/N=C/C(Cl)=C/c1ccc([N+](=O)[O-])cc1)C(=O)Nc1ccccc1C(=O)O,7.43
13,CC(C)(C)NC(=O)C(c1cccs1)N(C(=O)c1csnn1)c1ccccc1F (stereo not drawn),16.5
14,O=C(NNC(=O)C1[C@H]2CCCC[C@@H]12)Nc1cccc2ccccc12 (stereo partly drawn),3.75
15,CCOC(=O)C(=NC(C)CC)NNc1cccc(C(F)(F)F)c1 (stereo not drawn),7.88
16,Cc1cc(C(F)F)n2nc(C(=O)Nc3sc4c(c3C#N)CCC4)nc2n1,0.413
17,O=C(Nc1nc(-c2ccncc2)cs1)C1c2ccccc2Oc2ccccc21,13.2
18,Cc1nn(C(C)C(=O)N2CCCC2)c(=O)c2nn(-c3ccccc3)c(C)c12 (stereo not drawn),6
19,COc1cc(SC)ccc1C(=O)OCC(=O)NCCNC(=O)COC(=O)c1ccc(SC)cc1OC,15.5
20,O=C1c2cccc3c(N4CCCCC4)ccc(c23)C(=O)N1c1cccc(O)c1,12.3
21,COc1ccc(CNC(=O)CN2C(=O)CC(c3ccccc3)=Nc3ccccc32)cc1,4.56
22,CCOC(=O)C(NC(=O)c1cccc(Cl)c1)(OCc1ccccc1)C(F)(F)F (stereo not drawn),-3.61
23,Nc1nonc1-c1nc2ccccc2[nH]1,-3.02
24,Cc1cc(C)c(-c2cc(C(=O)Nc3c(C)n(C)n(-c4ccccc4)c3=O)[nH]n2)c(O)c1,0.804
25,Cc1cccc(-n2c(C)nc3ccc(Cl)cc3c2=O)c1,6.87
26,COc1cc(C)ccc1OCc1cc(C(=O)NC(C)Cn2cncn2)no1 (stereo not drawn),15
27,CCN1CCN(CCNC(=O)c2ccc(/C=C3/Sc4ccccc4N(Cc4cccc(C)c4)C3=O)cc2)CC1,9.62

# From article PMC4336329 (PLoS ONE, 2015)
